Measured values reported in US20060263362A1.
A number of entries come with more than one value. The list is limited to them. There may be further records. Results that share an entry seem to repeat one measurement on other runs, samples or individuals.

Target: sm1.2 (manufactured by Upstate Biotechnology), commercially available anti-hIGF-I antibody
Assay: competitive ELISA: free hIGF-I varied, against binding of sm1.2 (4.0 µg/mL) to plate-bound methylated BSA-hIGF-I

IC50: 1.2 µg/mL and 156 nM
Substance: human insulin-like growth factor-I (from UniProt P05019 49-118) (ligand)
